# Assay results taken from PubChem BioAssay (Tox21).
# Several values for one entry are separate records, joined by “and”; a condition that tells them apart may be missing. Equal values may be shown once. The inconclusive results got no clear call from the source; some entries with a clear call stand among them for comparison. Potencies of inconclusive entries are doubtful fits and often do not repeat. Activity calls are given as the source filed them. Calls come from the whole dose curve; as a rule, active = well fitted inhibition curve with a large enough effect in the repeat runs; inconclusive = weak or mixed curves; inactive = no such curve, though single readings can be large or run the other way.
# Biological target: Cytochrome P450 1A2 (Homo sapiens) (UniProt P05177)
# UniProt P05177, sequence (P05177 whole entry, looked up): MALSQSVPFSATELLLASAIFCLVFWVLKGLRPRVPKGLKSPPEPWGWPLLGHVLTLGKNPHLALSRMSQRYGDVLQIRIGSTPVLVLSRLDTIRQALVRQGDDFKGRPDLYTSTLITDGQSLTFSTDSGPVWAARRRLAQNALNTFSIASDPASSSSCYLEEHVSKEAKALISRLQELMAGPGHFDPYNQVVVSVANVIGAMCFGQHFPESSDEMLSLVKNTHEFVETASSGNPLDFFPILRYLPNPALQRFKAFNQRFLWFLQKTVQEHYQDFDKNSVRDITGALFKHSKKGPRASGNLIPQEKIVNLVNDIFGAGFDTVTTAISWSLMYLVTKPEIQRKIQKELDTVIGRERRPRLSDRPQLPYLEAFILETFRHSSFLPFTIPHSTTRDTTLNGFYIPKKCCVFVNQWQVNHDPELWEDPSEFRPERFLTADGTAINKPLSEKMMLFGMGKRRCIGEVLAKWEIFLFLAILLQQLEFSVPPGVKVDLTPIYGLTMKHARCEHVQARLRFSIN
# Assay: Cytochrome P450 Family 1 Subfamily A Member 2 (CYP1A2) small molecule antagonists: luciferase reporter qHTS assay (AID 1671199); note: nearly all actives have a fitted effect of over 50% in size; for activity change, negative = inhibition: series mostly up to about 120 µM
# How it was run: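 Human CYP1A2 activity measured with a P450-Glo proluciferin substrate; compounds in DMSO preincubated 10 min at room temperature with enzyme-substrate mix, then NADPH regeneration system added for 1 h. Luciferin detection reagent, 20 min, luminescence read.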
# % is set by controls: 0 for no effect and ±100 for the full control effect; potency is the fitted concentration of half-maximal effect; tags give direction and shape of the fitted curve.
SMILES,Potency,"activity change, negative = inhibition"
CCCCCCCCCOC(C)=O,"inconclusive: 39.9 µM [inhibitor, partial curve, poor fit]",
CC(C)C(=O)OCC(C)(C)C(O)C(C)C (stereo unspecified),"inconclusive: 63.5 µM [inhibitor, partial curve]",
Cc1cccc(OCC(O)CNC(C)(C)C)c1C (stereo unspecified),"inconclusive: 24.5 µM [inhibitor, partial curve, poor fit]",
CC(=O)NS(=O)(=O)c1ccc(N)cc1,"inconclusive: 63.3 µM [inhibitor, partial curve]",
N#CCC(=O)NN,inactive,
Cc1ccc(C(=O)C(=O)O)cc1C,active: 30.9 µM,
CC(C)C(=O)OC/C=C/c1ccccc1,"inconclusive: 63.3 µM [inhibitor, partial curve]",
CCOC(=O)CC(=O)OCC,"inconclusive: 43.4 µM [inhibitor, partial curve, poor fit]",
O=C(NCC1CN(c2ccc(N3CCOCC3=O)cc2)C(=O)O1)c1ccc(Cl)s1 (stereo unspecified),"inconclusive: 27.5 µM [inhibitor, partial curve]",
C=C(C)c1cccc(C(C)(C)N=C=O)c1,"inconclusive: 35.6 µM [inhibitor, partial curve]",
Cc1cc2nc(N)sc2cc1C,active: 1.14 µM,
COc1ccc2c(c1)c1c3n2CCN(C)C3=NCC1,"inconclusive: 16.2 µM [inhibitor, partial curve]",
CCCCCCCCCCCCCCCCCBr,,inactive: -12.4% [at 23.6 µM]
OC[C@H]1O[C@@](CO)(O[C@H]2O[C@H](CO)[C@@H](O)[C@H](O)[C@H]2O)[C@@H](O)[C@@H]1O,"inconclusive: 25.2 µM [inhibitor, full curve]",
CC1=CC[C@H](C(C)C)C=C1,"inconclusive: 63.3 µM [inhibitor, partial curve]",
CCOC(=O)NNc1nncc2ccccc12,"inconclusive: 18.2 µM [inhibitor, partial curve]",

SMILES,Potency,"activity change, negative = inhibition"
FC(F)OC(Cl)C(F)(F)F (stereo unspecified),active: 39.9 µM,
CCCCOCCOCCOCCOCCO,"inconclusive: 35.6 µM [inhibitor, partial curve]",
CN1C(=O)N(C)C(O)C1O (stereo unspecified),"inconclusive: 39.9 µM [inhibitor, partial curve]",
OC[C@H]1O[C@H](O[C@]2(CCl)O[C@H](CCl)[C@@H](O)[C@@H]2O)[C@H](O)[C@@H](O)[C@H]1Cl,"inconclusive: 35.8 µM [inhibitor, partial curve]",
COc1ccc(CN(CCN(C)C)c2ncccn2)cc1,"inconclusive: 24.5 µM [inhibitor, partial curve]",
CSc1ccc(Cl)cc1,inactive,
CCOC(=O)c1cc(=O)c2c(OCC(COc3cccc4oc(C(=O)OCC)cc(=O)c34)OC(=O)[C@@H](N)CCCCN)cccc2o1,"inconclusive: 24.5 µM [inhibitor, partial curve]",
CC(=O)c1nccs1,"inconclusive: 32.8 µM [inhibitor, partial curve] and inconclusive: 71 µM [inhibitor, partial curve, poor fit]",
CCCCCCCCCC(C)C=O (stereo unspecified),"inconclusive: 63.3 µM [inhibitor, partial curve]",
CO[C@@]1(NC(=O)CSCC#N)C(=O)N2C(C(=O)O)=C(CSc3nnnn3C)CS[C@@H]21,active: 24.5 µM,
CC1COc2c(N3CCN(C)CC3)c(F)cc3c(=O)c(C(=O)O)cn1c23 (stereo unspecified),inactive,
COc1cccc(OC)c1O,active: 35.6 µM,
COc1ccc(C(=O)c2cccc(O)c2)c(OC)c1,"inconclusive: 63.2 µM [inhibitor, partial curve]",
CC(C)Cc1nccs1,"inconclusive: 64.4 µM [inhibitor, partial curve]",
CCCCCCCCS(=O)(=O)Cl,inactive,
